For this assay, the system named is NCI-H322M lung. As to the kind of experiment: NCI-60 cell line screen, 48 h.

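Five compound concentrations were applied to cells in 96-well plates for 48 hours; endpoints were derived by simple linear interpolation of the resulting dose-response curve. At the GI50, growth is halved. At the TGI there is no net growth.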

Regarding `CN1CCN(c2ccc(Nc3nc(NCCCNC(=O)c4ccc(F)cc4)c4sccc4n3)cc2)CC1`, the GI50 was 5.87 µM and the TGI worked out at 18.9 µM.

For the compound `COc1cccc(/C=C/c2nc3ccccc3c(=O)n2CC(=O)Nc2ccccc2)c1`, the GI50 was 11.7 µM and the TGI came out at 28.1 µM.

Source of the values: PubChem BioAssay (NCI).
